Test results published in PubChem BioAssay AID485297 (National Center for Advancing Translational Sciences (NCATS), 2010).
The whole screen tested about 320,000 compounds, of which about 9,100 (2.8%) were called active. The shares of active, inactive and inconclusive entries below differ from those in the screen. Calls come from the whole dose curve; as a rule, active = well fitted activation curve with a large enough effect; inconclusive = small, poorly fitted or top-dose-only effect; inactive = no such curve, though single readings can be large or run the other way. Where the call is inconclusive, the potency comes from a doubtful curve fit.

Test: qHTS Assay for Rab9 Promoter Activators; note: nearly all actives have a fitted effect of over 60% in size
Conditions: Huh7 Rab9 promoter-luciferase reporter, luminescence, 24 h; series mostly up to 9.22 µM
How it was run: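 Promoter activation is measured as luciferase luminescence in Huh7 cells stably transfected with a Rab9 promoter–luciferase construct, following 24 h compound exposure at 37 °C and 10 min reagent incubation at ambient temperature.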
Potency is the fitted concentration of half-maximal effect; tags give direction and shape of the fitted curve.

Potency, active:
O=C(Nc1nc2nccc(-c3ccccc3)n2n1)c1ccccc1 2.51 µM, CC(C)(c1ccccc1)c1ccc(OCc2ccc(C(=O)O)o2)cc1 1.12 µM, CC(C)=CC(=O)Nc1ccc(Cl)cc1 1.41 µM, COc1cc(OC)cc(C(=O)Nc2ccc3c(c2)OCCO3)c1 3.16 µM, c1csc(-c2ccc(N3CCOCC3)nn2)c1 0.501 µM, CCCCOc1ccc(C(=O)NCCc2ccccc2)cc1 1.12 µM, O=C(Nc1ccc(Oc2cccnc2)cc1)c1ccccc1F 2.82 µM, O=C(Nc1ccc(F)cc1)Nc1ccc(N2CCOCC2)c2nonc12 2.24 µM, Cc1cc2nn(-c3ccc(F)cc3)nc2cc1N 3.16 µM, CN1C(=O)S/C(=C/c2ccc(OCc3cccc(C(=O)O)c3)cc2)C1=O 0.282 µM, Cc1c(CC(=O)N[C@H](C(=O)O)C(C)C)c(=O)oc2cc3c(cc12)CCC(C)(C)O3 1.78 µM, O=C(CSc1nnc2ccccn12)c1ccc2c(c1)OCCO2 1 µM, CC(=NC1CCCCC1)C1=C(O)c2ccccc2C1=O 2.82 µM

Potency, inactive:
COC(=O)[C@H]1C[C@H](C(=O)O)[C@@H](C)C1(C)C, Cc1ccc(NC(=O)CN2C(=O)c3ccccc3S2(=O)=O)c(C)c1, COC(=O)c1ccc(NC(=O)C2CCN(C(=O)Nc3ccccc3)CC2)cc1, Cc1cc(C(=O)COC(=O)Cc2n[nH]c(=O)c3ccccc23)c(C)n1-c1ccc2c(c1)OCCO2, CC1CCCC(C)N1S(=O)(=O)c1ccc(NC(=O)CCn2cnc3ccccc3c2=O)cc1 (stereo not given), O=C(N/N=C/c1cc(Cl)cc([N+](=O)[O-])c1O)c1ccc2c(c1)OCO2, Cc1cc(C)c(NC(=O)CN2C(=O)CC(C)S(=O)(=O)c3ccccc32)c(C)c1 (stereo not given), Cc1ccc(NS(=O)(=O)c2ccc(C(=O)N3CCN(c4ncccn4)CC3)cc2)cc1, COC(c1ccccc1)c1nnc(CCC(=O)N(C)CCCC2CCCC2)o1 (stereo not given), CC(C)c1nc2sc3c(c2c(=O)[nH]1)CC(C)(C)OC3, Cn1cc(/C=C2\SC(=S)N(NC(=O)c3ccccc3)C2=O)c2ccccc21, CC(Sc1ncccn1)C(=O)Nc1ccc2c(c1)OCCO2 (stereo not given), CCc1ccc(OCCCC(=O)Nc2ccc(N3CCCCC3)cc2)cc1, O=C(/C=C/c1ccc(N2CCCCC2)c([N+](=O)[O-])c1)c1ccc(S(=O)(=O)N2CCCC2)cc1, CCOCCOC(=O)c1cccc(NC(=O)OCC)c1, Cc1ccc(NC(=O)CCN2C(=O)C3CCCCC3C2=O)c(O)c1 (stereo not given), Cc1csc(Nc2ccccc2C(F)(F)F)n1

Potency, inconclusive:
Cc1nc(-c2ccc(NC(=O)Cc3ccccc3)cc2)cs1 3.16 µM [activator, partial curve], COc1ccccc1N(Cc1ccccc1)S(=O)(=O)c1cccc(C(=O)Nc2cc(C)ccn2)c1 5.62 µM [activator, single point], COc1cc(Cl)c(C)cc1NC(=O)c1cccc(OC)c1OC 5.62 µM [activator, single point], Cc1ccc2nc(-c3ccc(NC(=S)NC4CC(C)(C)NC(C)(C)C4)cc3)sc2c1 2.51 µM [activator, partial curve], CCCN(CC(=O)Nc1ccc(Cl)cc1Cl)C(=O)/C=C/c1ccco1 4.47 µM [activator, partial curve], Cc1onc(-c2ccccc2Cl)c1C(=O)Nc1nc2c(s1)CCCC2 3.98 µM [activator, partial curve], COc1ccc(NC(=O)C(=O)Nc2cccc3cccnc23)cc1OC 3.55 µM [activator, partial curve], CCOC(=O)c1sc(NC(=O)c2cccs2)nc1C 3.55 µM [activator, partial curve], O=C(Nc1sc2c(c1C(=O)O)CCCCC2)c1ccco1 2.82 µM [activator, partial curve], O=C(NCCc1ccccc1F)C(=O)Nc1nccs1 3.55 µM [activator, partial curve], Cn1ncc2c(Nc3ccc(-c4ccccc4)cc3)ncnc21 3.55 µM [activator, partial curve], COc1ccc2c(c1)[nH]c1c(=O)n(Cc3ccco3)cnc12 3.55 µM [activator, single point], N#Cc1ccccc1NC(=O)c1ccc(-c2ccccc2Cl)o1 3.55 µM [activator, single point], CCCOC(=O)c1ccc(-c2ccc(C=O)o2)cc1 0.316 µM [activator, partial curve], Cc1ccc(-n2ncc3c(NCc4cccnc4)ncnc32)cc1C 0.794 µM [activator, full curve], Fc1ccc(-c2nnc(SCc3cccnc3)o2)cc1 4.47 µM [activator, partial curve], C/C(=N\NC(=O)c1ccccc1O)c1c(O)cc(C)oc1=O 2.82 µM [activator, partial curve], COc1ccc(NC(=O)Nc2ccccc2SC)cc1OC 2 µM [activator, partial curve], COc1ccc(Nc2oc(-c3ccccc3F)nc2C#N)cc1 3.16 µM [activator, partial curve], N/C(=N\OC(=O)Cc1ccc([N+](=O)[O-])cc1)c1ccccn1 3.16 µM [activator, partial curve], Cc1ccc(-n2c(C)cc(C(=O)COC(=O)c3c(C)noc3C)c2C)cc1 0.708 µM [activator, full curve, poor fit], O=C(N/N=C/c1ccsc1)c1ccc2ccccc2n1 5.01 µM [activator, single point], CCOC(=O)c1ccc2[nH]c3c(c2c1)CCCC3 1.12 µM [activator, partial curve, poor fit], CS(=O)(=O)c1ccccc1C(=O)Nc1ccc(-c2nc3ccccc3o2)cc1 4.47 µM [activator, partial curve], Cc1ccc(-c2nnn(CCC(=O)NC(C)(C)C)n2)cc1 3.55 µM [activator, partial curve], Brc1ccccc1-n1nnc(-c2cccnc2)n1 2.82 µM [activator, partial curve], C/C(=N\NC(=O)c1ccccn1)C12CC3CC(CC(C3)C1)C2 3.98 µM [activator, single point], Cc1nc2scc(-c3ccccc3)c2c(=O)n1N=C1C=CC(=O)C=C1 3.16 µM [activator, partial curve], c1ccc(Cn2nnc(-c3ccccc3)n2)cc1 3.55 µM [activator, partial curve], CCc1cc2c(=O)n(CC(C)C)cnc2s1 3.55 µM [activator, partial curve], COc1cccc(-c2cc(C(=O)N3CCN(c4ccc(F)cc4)CC3)no2)c1 1.26 µM [activator, single point], N#Cc1ccc(NC(=O)CSc2nc3[nH]c(=O)cc(O)c3s2)cc1 5.62 µM [activator, single point], COc1ccc(CN=C2NN=C(c3ccccc3)CS2)cc1 3.98 µM [activator, single point], COC(=O)Cn1ncc(N(C)Cc2ccccc2)c(Cl)c1=O 3.16 µM [activator, partial curve], O=C(Nc1cccc(/C=C/c2nc3ccccc3c(=O)[nH]2)c1)c1ccccc1Cl 2.51 µM [activator, partial curve], CC(C)(C)c1nnc(NC(=O)Nc2ccc(Cl)cc2)s1 2.82 µM [activator, partial curve], CN(Cc1nc(-c2cccs2)no1)CC(O)c1ccccc1 (stereo not given) 2.82 µM [activator, partial curve], C/C(=N\Nc1cccc2cccnc12)c1ccc(C)cc1 5.62 µM [activator, single point], COC(=O)c1ccc(CSc2nnc(N)s2)cc1 3.98 µM [activator, single point], O=C(Nc1cccs1)Nc1c(F)c(F)c(F)c(F)c1F 1.26 µM [activator, single point], CC1CCc2c(C(=O)Nc3nccs3)csc2C1 (stereo not given) 3.55 µM [activator, single point], COc1ccc(-c2cc(-c3ccc(OC)cc3)[nH]n2)cc1 1.58 µM [activator, single point], CC(C)CCn1cnc2c(cnn2-c2ccc(F)cc2)c1=O 0.708 µM [activator, partial curve], Cc1ccc(C(=O)NCCc2csc(-c3cccnc3)n2)cc1 3.16 µM [activator, single point], NC(=O)c1oc2ccccc2c1NC(=O)c1nc2ccccc2s1 2 µM [activator, partial curve]
